Measured values: the supplement of paper PMC3334620
Whole data set: some 33,000 sequences, median “E-score (-0.5 to 0.5)” near -0.043, cut for the highest 2% near 0.37. This is one part of the list.

The sequences below were run against T1, Upc2 (UniProt Q12151) (assay: PBM E-score (8-mer binding enrichment) (E-score (-0.5 to 0.5)); higher = stronger / more preferred TF binding; most listed sequences are background and not binding sites). Conditions: protein concentration: 200 nM; construct: GST-full length.
T1 sequence: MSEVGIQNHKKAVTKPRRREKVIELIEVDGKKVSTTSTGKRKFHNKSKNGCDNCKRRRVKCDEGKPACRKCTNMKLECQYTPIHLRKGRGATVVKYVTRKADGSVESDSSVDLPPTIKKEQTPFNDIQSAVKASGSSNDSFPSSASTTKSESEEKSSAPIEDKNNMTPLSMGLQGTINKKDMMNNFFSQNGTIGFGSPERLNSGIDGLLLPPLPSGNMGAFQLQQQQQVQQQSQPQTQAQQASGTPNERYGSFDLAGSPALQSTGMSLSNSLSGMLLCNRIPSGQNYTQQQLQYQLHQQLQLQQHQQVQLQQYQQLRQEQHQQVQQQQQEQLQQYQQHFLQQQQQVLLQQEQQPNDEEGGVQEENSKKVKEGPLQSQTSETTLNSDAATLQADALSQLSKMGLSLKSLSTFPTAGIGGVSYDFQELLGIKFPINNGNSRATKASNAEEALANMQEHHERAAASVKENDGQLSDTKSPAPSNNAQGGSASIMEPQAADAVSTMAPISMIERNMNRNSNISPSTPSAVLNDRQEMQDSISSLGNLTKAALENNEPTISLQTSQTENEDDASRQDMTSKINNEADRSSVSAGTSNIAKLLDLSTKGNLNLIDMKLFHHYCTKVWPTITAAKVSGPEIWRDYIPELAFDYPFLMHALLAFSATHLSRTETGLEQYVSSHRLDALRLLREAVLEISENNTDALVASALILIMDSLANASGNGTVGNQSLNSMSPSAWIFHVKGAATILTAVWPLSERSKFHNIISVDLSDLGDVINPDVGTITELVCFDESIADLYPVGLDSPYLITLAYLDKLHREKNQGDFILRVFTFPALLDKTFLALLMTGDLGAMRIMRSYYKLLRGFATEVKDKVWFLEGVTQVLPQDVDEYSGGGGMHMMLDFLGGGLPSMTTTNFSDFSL
Procedure, shortened: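 Full-length yeast transcription factors or their DNA-binding domains, GST-tagged and expressed with PURExpress, were applied at about 100-200 nM to universal all-10-mer Agilent arrays. These arrays had been made double-stranded by primer extension on fresh or once-stripped slides. Detection used fluorescent anti-GST, normalisation used masliner, and E-scores for ungapped eight-base words pooled with reverse complements came from the Universal PBM Analysis Suite.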

| Sequence | PBM E-score |
| --- | --- |
| ACACTCGC | 0.111 |
| GAAATTGC | -0.0609 |
| GGTTACAC | 0.0171 |
| AAACCACG | -0.0614 |
| CCCGAGAC | 0.0631 |
| ACCTGCAC | -0.0354 |
| CATATCGC | 0.113 |
| GGGGGAAC | -0.071 |
| CCTCCCTC | -0.0405 |
| GCAACTCC | -0.318 |
| GAACCCAA | -0.0241 |
| ATCAGATG | -0.265 |
| ATTTGACG | 0.125 |
| GTATGGGA | 0.164 |
| GGATCTCA | -0.23 |
| CGTGATAC | 0.0875 |
| AATGCGGC | 0.032 |
| CCAACCCC | -0.136 |
| ACCATTAC | 0.17 |
| CAACGTGG | -0.18 |
| TGCACCCA | -0.0139 |
| CGAAAGCA | 0.104 |
| GACTTCTC | -0.122 |
| CATTGTCA | 0.0475 |
| ATAGGGTC | -0.145 |

| Sequence | PBM E-score |
| --- | --- |
| AGGTAGAC | -0.125 |
| CTCGCGTA | 0.327 |
| GATGTGGC | -0.0833 |
| GTGTACCA | 0.0546 |
| CCAGGACC | -0.317 |
| ATTCACTA | -0.0977 |
| TATATCGA | 0.131 |
| GAGCGGAC | 0.0387 |
| TGAAACAA | 0.0416 |
| TACGCAGA | 0.261 |
| AACCTCCG | -0.137 |
| CGTAAGAC | 0.257 |
| GCGTCCCA | -0.17 |
| AAAGCCCT | -0.223 |
| TAGTATAA | 0.22 |
| ATCTGGGG | -0.106 |
| ACTGTGCC | -0.212 |
| AAGATCCG | -0.0061 |
| GGTTTAGA | -0.055 |
| CTAACGAC | 0.279 |
| CGAGGCCC | 0.0437 |
| GGACAACC | 0.0159 |
| ATCCATGC | -0.179 |
| CCAACGTA | 0.138 |
| CCCTGAGA | -0.243 |

| Sequence | PBM E-score |
| --- | --- |
| ACGTGTAT | 0.118 |
| AACACTAG | -0.1 |
| ATACGGCA | 0.422 |
| CGAAGTAA | 0.271 |
| GCGATACA | 0.0744 |
| ATGGCCCC | -0.177 |
| ATATCAAT | 0.0132 |
| ACATCTGA | -0.258 |
| CCGCGCTA | -0.0389 |
| ATCCTCTG | -0.0424 |
| AATTGCAT | 0.0605 |
| CTAGATAA | -0.0338 |
| ACAAATGT | 0.0916 |
| CAGCAAGG | -0.23 |
| GAGGAAGA | -0.17 |
| GTTCCATA | -0.028 |
| CAGAATTA | -0.0215 |
| CAGTGGCA | -0.319 |
| AGGGATGA | -0.297 |
| ATGAGTTA | -0.0964 |
| ATACTAGA | 0.0865 |
| TTCCAAAA | 0.0144 |
| CGCGGGTA | -0.113 |
| AACGACTG | 0.389 |
| AGCTGCAT | -0.108 |

| Sequence | PBM E-score |
| --- | --- |
| CACCTACG | 0.122 |
| AAATTTCC | -0.00442 |
| AGTAGGAT | 0.0191 |
| TTCTGCAA | 0.111 |
| ATATGCTC | 0.0393 |
| ATACGCAT | 0.362 |
| CACGGCGG | -0.086 |
| ACCTATCA | -0.11 |
| ACCTAGTA | -0.235 |
| AAGATAAG | -0.119 |
| AATCATCT | -0.216 |
| CCTGGTCA | -0.262 |
| AGATCGTG | 0.0463 |
| AAGGCCCA | -0.237 |
| CACGCATG | -0.23 |
| GGTCCCAA | -0.297 |
| CGACTGGA | 0.11 |
| CCCCCAGC | -0.167 |
| CATACCGA | 0.0922 |
| AGACCTGC | -0.249 |
| AACCGAAA | 0.257 |
| AAGACTTA | -0.0413 |
| AGTCTGCC | -0.217 |
| GGGCTGTA | -0.0846 |
| TACCGGTA | 0.115 |

| Sequence | PBM E-score |
| --- | --- |
| AGACGATA | 0.138 |
| AATGCGGA | 0.0378 |
| CTGAGTCA | -0.0602 |
| AACCAAGT | 0.112 |
| ATGTGACC | -0.122 |
| ATGAGAGA | -0.0654 |
| AAGCAGGA | -0.047 |
| CCATATGG | 0.0747 |
| GGCCTTAA | -0.0394 |
| TCTGCCAA | 0.0469 |
| CCCCTTGA | -0.112 |
| TAGGTTCA | 0.0174 |
| AGCTAGAT | -0.0602 |
| ATAGGAGA | -0.0816 |
| GGCCGTAA | 0.255 |
| ACTAATCG | 0.181 |
| CGCGCTAG | -0.0533 |
| GAGCACGA | 0.1 |
| GATGATCA | -0.0107 |
| GCCATACA | 0.093 |
| ATCCACAC | -0.195 |
| TACTTCCA | -0.00592 |
| AAGTGTCG | 0.171 |
| CGTCGGTC | 0.185 |
| GTGGTTAA | 0.0266 |

| Sequence | PBM E-score |
| --- | --- |
| GCGGGGAC | -0.163 |
| AGGTATAA | 0.198 |
| CGTCGTGC | 0.0916 |
| AATGTAAA | 0.0929 |
| ACTAGGGG | -0.125 |
| TGCCTACA | -0.0509 |
| AGAATGCA | -0.00342 |
| CGGCATGC | -0.0612 |
| GTTAGCTA | -0.0162 |
| CCGGAATA | -0.0728 |
| GTTAAGCA | -0.0899 |
| GCAGACAC | -0.0421 |
| ATCAAATG | -0.0163 |
| ACGGCCAG | -0.00694 |
| AAAGTCAA | -0.137 |
| AGTTAAAC | 0.241 |
| AACCATGC | -0.101 |
| ACTTAGGC | -0.349 |
| ACCCCGTC | -0.0492 |
| CTGCCAAC | -0.0381 |
| GGCCCAAC | -0.123 |
| GCTCTGAC | -0.242 |
| ACCACATG | -0.162 |
| CCGGAACA | -0.189 |
| TAAATGAA | 0.00813 |

| Sequence | PBM E-score |
| --- | --- |
| AGAACGGG | 0.147 |
| CTGAAAAA | -0.0416 |
| CCTTATTC | -0.115 |
| ACAACGTA | 0.161 |
| ACACCGCC | -0.0148 |
| GATCACAC | -0.178 |
| CGGTTCCA | 0.152 |
| GCTGTCAC | -0.189 |
| AGGGTTTC | -0.276 |
| CACTCTAG | -0.141 |
| CCCGGAGG | -0.268 |
| CTATCTAA | -0.067 |
| GCAGGCAA | -0.239 |
| AGTCCAGG | -0.277 |
| AACAAGAT | -0.00017 |
| CAACCGCG | -0.00782 |
| CGATGCAC | -0.0246 |
| AAATCAAT | -0.0433 |
| CGGCCCCG | -0.135 |
| AGGGTTAC | -0.0122 |
| GCGGACGC | -0.169 |
| CCCATTGC | -0.184 |
